# Among all 350,000 compounds or so, about 9,900 (2.8%) were called active. Inconclusive means that the source gave no clear call. Such entries were picked first, then a sample of the others. Calls come from the whole dose curve; as a rule, active = well fitted activation curve with a large enough effect; inconclusive = small, poorly fitted or top-dose-only effect; inactive = no such curve, though single readings can be large or run the other way. Potencies of inconclusive entries are left out as doubtful fits.
# Assay: A quantitative high throughput screen for small molecules that induce DNA re-replication in MCF 10a normal breast cells. Note: nearly all actives have a fitted effect of over 50% in size.
# Conditions: MCF 10A DNA re-replication, Hoechst nuclear intensity, 48 h; series mostly up to 46.1 µM
# Potency is the fitted concentration of half-maximal effect; tags give direction and shape of the fitted curve.
row,SMILES,Potency
1,OC1CCCN(Cc2ccc3ccc4cccc5ccc2c3c45)C1 (configuration not stated),"inconclusive [activator, partial curve, poor fit]"
2,CC(=O)Nc1ccc2c(c1)Cc1cc(N3C(=O)C=CC3=O)ccc1-2,active: 5.17 µM
3,CCN(CC)C(=O)[C@H]1CC(CC(=O)NCCCN(C)C)C(=O)N2CCc3c([nH]c4ccccc34)[C@]12C (some centres not stated),"inconclusive [activator, full curve, poor fit]"
4,CCN(CC)C(c1ccc(F)cc1)c1nnnn1C1CCCCC1 (configuration not stated),inactive
5,COc1ccc(CN(C(=O)c2ccc(C)cc2)C2CCS(=O)(=O)C2)cc1 (configuration not stated),inactive
6,COc1ccc2[nH]c3c(c2c1)CCn1c-3nc2ccccc2c1=O,"inconclusive [activator, single point]"
7,O=C1N(Cc2cccc(Cl)c2)C[C@@H]2C[C@@H](c3ccco3)N3CCC[C@@]123,"inconclusive [activator, partial curve, poor fit]"
8,CC(C)CN1CCN(Cc2cn(C)c3ccccc23)CC1CCO (configuration not stated),"inconclusive [activator, partial curve, poor fit]"
9,O=C(Nc1nnc(C2CCCCC2)s1)c1cccs1,"inconclusive [activator, single point]"
10,COc1ccc(NC(=O)NCCN2CCN(c3cc(OC)ccc3OC)CC2)cc1,inactive
11,CCOC(=O)c1ccc2c(c1)nc(SCC(=O)c1cc3ccccc3o1)n2CC,"inconclusive [activator, partial curve, poor fit]"
12,C=CC(=O)Nc1cccc(N(C)c2ccnc(Nc3ccc(N4CCN(C)CC4)cc3)n2)c1,active: 14.6 µM
13,COc1ccc(C(=O)Nc2nc(-c3cccs3)cs2)cc1,"inconclusive [activator, single point]"
14,CCOC(=O)c1ccc(NC(=O)c2nc[nH]c2C(=O)NCCCCNC(=O)c2[nH]cnc2C(=O)Nc2ccc(C(=O)OCC)cc2)cc1,inactive
15,COc1ccc(/C=C2\COc3ccccc3C2=O)c(OC)c1,"inconclusive [activator, single point]"
16,CN1CCN(c2ccc([N+](=O)[O-])cc2C(=O)c2ccc(Cl)cc2)CC1,active: 11.6 µM
17,O=C(CN1CCN(Cc2ccccc2)CC1)Nc1ccc([N+](=O)[O-])cc1C(=O)Nc1ccccc1F,inactive
18,CC(C)CC(=O)Nc1ccc2c(c1)oc1ccccc12,"inconclusive [activator, full curve, poor fit]"
19,COc1ccc(C(=O)/C=C/c2ccc(OC)c(Cn3nnc4ccccc43)c2)cc1,active: 16.4 µM
20,O=C(COc1ncnc2ccc(Br)cc12)NCc1ccco1,"inconclusive [activator, single point]"
21,CCOC(=O)c1c(-c2ccccc2)csc1NC(=O)C(C)NCc1ccco1 (configuration not stated),"inconclusive [activator, partial curve, poor fit]"

row,SMILES,Potency
1,Cn1c(N)c(C(=O)COC(=O)CCCc2c[nH]c3ccccc23)c(=O)n(C)c1=O,"inconclusive [activator, partial curve, poor fit]"
2,CCC[C@@H](CN1CCC[C@H]1CN1C(N)=NC[C@@H]1Cc1ccccc1)N1C[C@@H]([C@H](C)CC)N(CCCC2CCCC2)C1=N,active: 18.4 µM
3,Cc1nn2c(-c3ccccc3)ccnc2c1-c1ccccc1,"inconclusive [activator, partial curve, poor fit]"
4,N=c1oc2cc(O)ccc2cc1C(=O)Nc1nc2ccccc2s1,active: 8.2 µM
5,CCCCCCCCNC(=O)CCNC(=O)c1ccc(C(C)(C)C)cc1,"inconclusive [activator, partial curve, poor fit]"
6,Cc1nc2sccn2c(=O)c1CCN1CCC(=C(c2ccccc2)c2ccc(F)cc2)CC1,active: 5.17 µM
7,CCOc1ccnc2c1c(=O)n(Cc1cc(OC)cc(OC)c1)c(=O)n2C,inactive
8,C/C(=N/NC(=O)Cc1cccc2ccccc12)c1cccs1,inactive
9,CCOc1ccccc1NC(=O)C(NCC1(N2CCCCC2)CCCCC1)c1ccccc1 (configuration not stated),"inconclusive [activator, partial curve, poor fit]"
10,Cc1ccc(C(=O)Nc2cccnc2Cl)cc1Cl,inactive
11,CC1CCCN(CCSc2ccc(Cl)cc2)C1 (configuration not stated),"inconclusive [activator, partial curve, poor fit]"
12,COc1ccc(/C=N/NC(=O)c2ccn[nH]2)cc1Cn1nc(C)c([N+](=O)[O-])c1C,"inconclusive [activator, single point]"
13,Cc1nc2c(C)cccc2cc1C(=O)N/N=C/c1cccc([N+](=O)[O-])c1,"inconclusive [activator, single point]"
14,COc1ccc(NC(=O)c2cc3ccccc3o2)cc1S(=O)(=O)N1CCCCC1,"inconclusive [activator, single point]"
15,CCOC(=O)c1cnc(SSc2ncc(C(=O)OCC)c(N)n2)nc1N,inactive
16,O=C(NCCCn1ccnc1)c1cc2nc(-c3ccc(Br)cc3)cc(C(F)(F)F)n2n1,active: 14.6 µM
17,COc1ccc(Cn2c(C)c(C)c(C#N)c2NC(=O)Nc2ccccc2)cc1,"inconclusive [activator, single point]"
18,CCOC(=O)C1=C(C)NC(=O)CC1c1cc2c(cc1[N+](=O)[O-])OCO2 (configuration not stated),"inconclusive [activator, single point]"
19,COc1cccc(NC(=O)CN(C)C(=O)c2cccc(S(=O)(=O)N3c4ccccc4CC3C)c2)c1 (configuration not stated),"inconclusive [activator, partial curve, poor fit]"
20,O=C(N/N=C/c1ccc([N+](=O)[O-])s1)C(O)c1ccccc1 (configuration not stated),"inconclusive [activator, single point]"
21,COc1ccc(NS(=O)(=O)c2ccc(N/N=C(\C)c3ccncc3)c([N+](=O)[O-])c2)cc1,"inconclusive [activator, full curve, poor fit]"
